Where a name gives a salt, the structure may show the parent alone. In all, about 1,900 compounds were measured (“cell viability of compound + 1 nM pemigatinib relative to pemigatinib-only (DMSO) wells”: median about 0.95, lowest 2% from about 0.22 on). Some of the results follow.

The test system of this assay is PDC-DUC18828. Put plainly: cell viability of compound + 1 nM pemigatinib relative to pemigatinib-only (DMSO) wells (fraction); PDC-DUC18828 is a patient-derived cholangiocarcinoma cell line; higher = less growth inhibition. The conditions noted are these: first compound 1 µM; pemigatinib concentration 1 nM; 72 h. How it is done: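 Selleck Bioactive library screen in the patient-derived FGFR2 fusion-positive ICC cell line PDC-DUC18828 (500 cells/well). Each compound was tested at 1 uM with 1 nM pemigatinib, in triplicate, for 72 h. Viability was read by CellTiter-Glo and normalised to plate DMSO controls. Value is the paper's averaged normalised viability.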
On to `COc1ccc(Cl)cc1C(=O)NCCc1ccc(S(=O)(=O)NC(=O)NC2CCCCC2)cc1` [Glyburide] + CCN1C(=O)N(c2c(F)c(OC)cc(OC)c2F)Cc2cnc3[nH]c(CN4CCOCC4)cc3c21 [pemigatinib], for which the cell viability amounted to 0.988.
As for `Nc1nc(=O)n([C@@H]2CS[C@H](CO)O2)cc1F` [Emtricitabine] + CCN1C(=O)N(c2c(F)c(OC)cc(OC)c2F)Cc2cnc3[nH]c(CN4CCOCC4)cc3c21 [pemigatinib], the figure is 0.986; as for `CC(O)c1cc(C(=O)N[C@@H](C)Cn2ccc(-c3ccc(C#N)c(Cl)c3)n2)n[nH]1` (stereo not given in full) + CCN1C(=O)N(c2c(F)c(OC)cc(OC)c2F)Cc2cnc3[nH]c(CN4CCOCC4)cc3c21 [pemigatinib], 0.919; as for `CCCCCCNC(=O)n1cc(F)c(=O)[nH]c1=O` [Carmofur] + CCN1C(=O)N(c2c(F)c(OC)cc(OC)c2F)Cc2cnc3[nH]c(CN4CCOCC4)cc3c21 [pemigatinib], 0.907.
In the case of `Cc1nc(C(=O)NCC(=O)O)c(O)c2ccc(Oc3ccccc3)cc12` + CCN1C(=O)N(c2c(F)c(OC)cc(OC)c2F)Cc2cnc3[nH]c(CN4CCOCC4)cc3c21 [pemigatinib], the cell viability came out at 0.913.
Regarding `COC(=O)C1=CO[C@@H](O)[C@@H]2C(CO)=CC[C@H]12` [Genipin] + CCN1C(=O)N(c2c(F)c(OC)cc(OC)c2F)Cc2cnc3[nH]c(CN4CCOCC4)cc3c21 [pemigatinib], the cell viability turned out to be 0.923.
With `O=c1c(O)c(-c2ccc(O)cc2)oc2cc(O)cc(O)c12` [Kaempferol] + CCN1C(=O)N(c2c(F)c(OC)cc(OC)c2F)Cc2cnc3[nH]c(CN4CCOCC4)cc3c21 [pemigatinib] the figure was 0.999; with `NC[C@@](O)(c1ccc(Cl)cc1)c1ccc(-c2cn[nH]c2)cc1` + CCN1C(=O)N(c2c(F)c(OC)cc(OC)c2F)Cc2cnc3[nH]c(CN4CCOCC4)cc3c21 [pemigatinib], 0.923.
As for `COc1cc2nc(N3CCN(C(=O)C4COc5ccccc5O4)CC3)nc(N)c2cc1OC` (stereo not given) [Doxazosin Mesylate] + CCN1C(=O)N(c2c(F)c(OC)cc(OC)c2F)Cc2cnc3[nH]c(CN4CCOCC4)cc3c21 [pemigatinib], the figure is 0.894; as for `N#C/C(=C(/N)Sc1ccc(N)cc1)c1ccccc1C(F)(F)F` + CCN1C(=O)N(c2c(F)c(OC)cc(OC)c2F)Cc2cnc3[nH]c(CN4CCOCC4)cc3c21 [pemigatinib], 0.99; as for `COc1cc(OC)c(NC(=O)Nc2cc(C)on2)cc1Cl` + CCN1C(=O)N(c2c(F)c(OC)cc(OC)c2F)Cc2cnc3[nH]c(CN4CCOCC4)cc3c21 [pemigatinib], 1.01.
For `CCCc1ccc(OCC(=O)N(Cc2nc(-c3cccnc3)no2)C(C)C)cc1` + CCN1C(=O)N(c2c(F)c(OC)cc(OC)c2F)Cc2cnc3[nH]c(CN4CCOCC4)cc3c21 [pemigatinib], the cell viability is 1.01.
With `CNC(=O)c1ccc(N2C(=S)N(c3ccc(C#N)c(C(F)(F)F)c3)C(=O)C2(C)C)cc1F` [Enzalutamide (MDV3100)] + CCN1C(=O)N(c2c(F)c(OC)cc(OC)c2F)Cc2cnc3[nH]c(CN4CCOCC4)cc3c21 [pemigatinib] the figure was 0.932.
As for `CCN(CC)CCOCCOC(=O)C1(c2ccccc2)CCCC1` [Pentoxyverine Citrate] + CCN1C(=O)N(c2c(F)c(OC)cc(OC)c2F)Cc2cnc3[nH]c(CN4CCOCC4)cc3c21 [pemigatinib], the figure is 1.01.
With `CC#CCn1c(N2CCC[C@@H](N)C2)nc2c1c(=O)n(Cc1nc(C)c3ccccc3n1)c(=O)n2C` [Linagliptin] + CCN1C(=O)N(c2c(F)c(OC)cc(OC)c2F)Cc2cnc3[nH]c(CN4CCOCC4)cc3c21 [pemigatinib] the figure was 0.834; with `c1ccc(Cn2c(-c3ccc(OC[C@H](C4CCNCC4)n4c(-c5ccccc5)nc5ccccc54)cc3)nc3ccccc32)cc1` [Deltarasin] + CCN1C(=O)N(c2c(F)c(OC)cc(OC)c2F)Cc2cnc3[nH]c(CN4CCOCC4)cc3c21 [pemigatinib], 1.02; with `Cc1cc(C(C)(C)C)cc(C)c1CC1=NCCN1` [Xylometazoline HCl] + CCN1C(=O)N(c2c(F)c(OC)cc(OC)c2F)Cc2cnc3[nH]c(CN4CCOCC4)cc3c21 [pemigatinib], 1.01.
`CCN(CC)C(=O)C1(c2ccccc2)CC1CN` (stereo not given) [Milnacipran HCl] + CCN1C(=O)N(c2c(F)c(OC)cc(OC)c2F)Cc2cnc3[nH]c(CN4CCOCC4)cc3c21 [pemigatinib]: the cell viability amounted to 0.929.
With `COc1cc(NC(=O)c2ccccn2)ccc1Cl` + CCN1C(=O)N(c2c(F)c(OC)cc(OC)c2F)Cc2cnc3[nH]c(CN4CCOCC4)cc3c21 [pemigatinib] the figure was 0.921; with `CC(C)(C)c1cc(NC(=O)Nc2ccc(-c3cn4c(n3)sc3cc(OCCN5CCOCC5)ccc34)cc2)no1` [Quizartinib (AC220)] + CCN1C(=O)N(c2c(F)c(OC)cc(OC)c2F)Cc2cnc3[nH]c(CN4CCOCC4)cc3c21 [pemigatinib], 1.03; with `Cc1ccc(-c2cc(C(F)(F)F)nn2-c2ccc(S(N)(=O)=O)cc2)cc1` [Celecoxib] + CCN1C(=O)N(c2c(F)c(OC)cc(OC)c2F)Cc2cnc3[nH]c(CN4CCOCC4)cc3c21 [pemigatinib], 0.981.
With `CC(C)[N+]1(C)[C@@H]2CC[C@H]1C[C@@H](OC(=O)C(CO)c1ccccc1)C2` (stereo not given in full) [Ipratropium Bromide] + CCN1C(=O)N(c2c(F)c(OC)cc(OC)c2F)Cc2cnc3[nH]c(CN4CCOCC4)cc3c21 [pemigatinib] the figure was 1.05; with `Nc1ccc(S(=O)(=O)Nc2nccs2)cc1` [Sulfathiazole] + CCN1C(=O)N(c2c(F)c(OC)cc(OC)c2F)Cc2cnc3[nH]c(CN4CCOCC4)cc3c21 [pemigatinib], 0.924; with `O=C(O)c1cccc(-c2noc(-c3ccccc3F)n2)c1` [Ataluren (PTC124)] + CCN1C(=O)N(c2c(F)c(OC)cc(OC)c2F)Cc2cnc3[nH]c(CN4CCOCC4)cc3c21 [pemigatinib], 0.9.
With `CN[C@H]1CC[C@@H](c2ccc(Cl)c(Cl)c2)c2ccccc21` [Sertraline HCl] + CCN1C(=O)N(c2c(F)c(OC)cc(OC)c2F)Cc2cnc3[nH]c(CN4CCOCC4)cc3c21 [pemigatinib] the figure was 0.987.

For the origin of these results see the supplement of paper PMC9588766.
